Measurements taken from PubChem BioAssay AID1508624 (National Center for Advancing Translational Sciences (NCATS), 2021).
Out of some 48,000 compounds screened, about 120 (0.25%) were called active. Inconclusive results (about 4%) are left out. Calls come from the whole dose curve; as a rule, active = well fitted activation curve with a large enough effect; inconclusive = small, poorly fitted or top-dose-only effect, or another doubt; inactive = no such curve, though single readings can be large or run the other way. The list shows a part of the results.

Experiment: Primary qHTS for Identification of Small Molecule Activators of Huntingtin-Antisense Promoter Activity; note: nearly all actives have a fitted effect of over 55% in size
Conditions: HEK293 HTT-AS promoter firefly luciferase reporter, 24 h; series mostly up to 57.5 µM; activity change, positive = activation: at the top concentration
Outline: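 Firefly luciferase readout (Dual-Glo, 10 min RT) after 24 h, 37 °C compound exposure (final up to 57.5 uM) of HEK293 reporter cells cultured 24 h beforehand; PTC124 at 50 uM final as control inhibitor; activity scaled vehicle 0%, zero RLU -100%.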

Activity change, positive = activation, inactive:
Cc1c2cnn(-c3ccccc3)c(=O)c2c(C)n1CCCC(=O)Nc1ccc(F)cc1F -14.2%
CCOC(=O)c1cc(-c2ccccc2)n(CCCC(=O)Nc2ccc(CC)cc2)c1C -37.8%
NC(=O)c1cc(S(=O)(=O)NCC2CCC(C(=O)Nc3cccc(Cl)c3)CC2)cs1 (stereo not given) -11.8%
Cc1c(Cl)cccc1NC(=O)CCS(=O)(=O)c1ccc(Br)s1 -12.3%
CC(C)(C)C1CCc2onc(C(=O)Nc3sc4c(c3C(N)=O)CCCC4)c2C1 (stereo not given) 0.331%
CCCc1nnc(NC(=O)c2nc(S(=O)(=O)Cc3ccc(C)cc3)ncc2Cl)s1 -30.4%
Cc1ccc(NC(=O)CSc2nc3ccccc3c3nc(CCn4c(C)nc5ccccc54)nn23)cc1F -65.2%
CCOc1ccccc1NS(=O)(=O)c1c(-c2ccc(C)cc2)csc1C(=O)OC -32%
COc1ccc(-c2nc(SCC(=O)NCCCc3ccccc3)n[nH]2)cc1 -20.9%
COc1ccc(NC(=O)CCc2c(C)nn(-c3ccc(N4CCOCC4)nn3)c2C)cc1Cl 13.4%
Cc1ccc2occ(CC(=O)Nc3ccc(S(N)(=O)=O)cc3)c2c1 -25.4%
CCN(CC)CCCNC(=O)c1oc2c(c1C)-c1nn(Cc3ccc(Cl)cc3)cc1CC2 -18.4%
COc1ccc(NC(=O)Cn2c(C)c3cnn(-c4ccccc4)c(=O)c3c2C)c(OC)c1 -11%
Cc1ccc(N(CC(=O)NC(C)c2ccccc2)S(=O)(=O)c2c(C)noc2C)cc1 (stereo not given) -21.1%
Cc1cccc(-c2noc(C3CC(=O)N(c4ccc5c(c4)OCCO5)C3)n2)c1 (stereo not given) 1.77%
CCOc1ccc(C2c3c(-c4ccccc4O)n[nH]c3C(=O)N2Cc2ccncc2)cc1 (stereo not given) -42.3%
CCc1ccc(C(=O)c2cn(CC(=O)Nc3ccc(F)cc3)c3cc4c(cc3c2=O)OCO4)cc1 -26.6%
Cc1cc(OCC(=O)Nc2sc3c(c2C(N)=O)CCCC3)ccc1C(C)C -13.2%
Cc1cc(C)c2c(=O)cc(CSCC(=O)Nc3nnc(C)s3)[nH]c2c1 -10.5%
CCCNC(=O)Nc1cc(C(=O)NCc2cccc(OCC)c2)ccc1N1CCCC1 1.44%
COc1ccc(N(C)C(=O)NCc2noc3ccc(C)cc23)c(OC)c1 -9.24%
COc1ccc(C(=O)CCC(=O)Nc2ccccc2C)cc1 4.84%
COc1ccccc1NC(=O)CSCc1cc(=O)c2c(C)cc(C)cc2[nH]1 -10.8%
Cn1cc(C[C@@H](N)C(=O)O)c2ccccc21 -6.63% [at 25.1 µM, percent change from vehicle, -100% = no light]
Cc1cccc(NC(=O)C2CCCN(S(=O)(=O)c3c(C)noc3/C=C/N(C)C)C2)c1C (stereo not given) -14%
CCC(Sc1nncn2c1cc1sccc12)C(=O)Nc1cccc(OC)c1 (stereo not given) -34.8%
CC(C)(C)C1CCc2nc(NC(=O)Cc3ccc(Cl)cc3)sc2C1 (stereo not given) -13%
CC(C)(C)c1ccc(C(=O)Nc2ccccc2C(=O)OCc2cc(=O)n3ccsc3n2)cc1 -7.95%
Cc1ccc(CN2CCN(C3CCN(C(=O)OC(C)(C)C)CC3)C(=O)C2=O)cc1 -13.5%
C/C(=C(\CCOP(=O)(O)O)SC(=O)c1ccccc1)N(C=O)Cc1cnc(C)nc1N 1.76% [at 6 µM, percent change from vehicle, -100% = no light]
CCOC(=O)CC(NC(=O)Cn1nnc(-c2ccccc2C)n1)c1ccc(OC)cc1 (stereo not given) -16%
Cc1cc2nc3c(=O)n(C)c(=O)n(C)c3nc2cc1N=CN(C)C -6.16%
CCC(=O)N1CCc2cc(Br)cc(S(=O)(=O)CCC(=O)Nc3ccccc3C)c21 9.98%
Cc1noc(-c2ccccc2OCC(=O)Nc2cccc([N+](=O)[O-])c2)n1 2.34%
Cc1ccccc1NC(=O)CC1C(=O)NCCN1C(=O)c1cccc(Cl)c1 (stereo not given) -0.186%
COC(=O)CCc1sc(Nc2ccc(OC)cc2)nc1-c1ccc(OC)cc1 -9.3%
CC(=O)c1ccc(N2CCN(C(=O)NCc3noc4ccc(C)cc34)CC2)cc1 -19.7%
CCOC(=O)C1CCCN(S(=O)(=O)c2ccc3[nH]c(=O)ccc3c2)C1 (stereo not given) -25.9%
Cc1ccc(S(=O)(=O)NCc2nc3nc(C)cc(C)n3n2)c(C)c1 -5.08%
CCOC(=O)c1ccccc1NC(=O)CSc1nc2ncccc2[nH]1 -10.2%
CCN1c2ccccc2-c2nc(SCC(=O)Nc3ccc(C)c(Cl)c3)ncc2S1(=O)=O -12.1%
COc1ccc(N2CCN(C(=O)CCS(=O)(=O)c3cc4c(cc3Cl)NC(=O)CO4)CC2)cc1 -24.7%
CC(=O)c1cc(C(=O)Nc2cccc(C)c2)c2ccccn12 -2.76%
COc1ccc(-c2nnn3c2nc(N2CCCC(C)C2)c2ccccc23)cc1 (stereo not given) -11.2%
Cc1ccc(C)c(N(C)C(=O)C2CCN(S(=O)(=O)c3cccc4nsnc34)CC2)c1 -24%
COCCNC(=O)CCC(=O)NNc1nc2ccccc2c2nc(-c3ccccc3)nn12 3.52%
Clc1ccccc1-c1nc(Nc2ccccc2)nc2ccc(Br)cc12 -23.3%
Cc1ccc(NC(=O)N2CCC(n3c(C)nc4cccnc43)CC2)c(Cl)c1 -1.67%
CCOc1ccc(NC(=O)CSc2ncc3c(n2)-c2ccccc2N(C)S3(=O)=O)cc1 10.7%
Cc1ccc(NC(=O)c2cc(S(=O)(=O)N3CCOCC3)c(Cl)cc2Cl)cc1 -52%
Cc1cc(C)cc(NC(=O)C2CCN(S(=O)(=O)c3cccc4nonc34)CC2)c1 -8.68%
Nc1c2c(nc3ccccc13)CCCC2
COc1ccc(CNC(=O)Nc2cn(CC(C)C)c(=O)c3ccccc23)c(OC)c1 -12%
CCCCC(CC)COC(=O)C(C#N)=C(c1ccccc1)c1ccccc1 (stereo not given)
CCc1ccc(CNC(=O)c2ccc(CSc3nc4ccncc4n3Cc3ccccc3)cc2)cc1 -20.5%
CCC(Oc1ccccc1)C(=O)Nc1nnc(S(=O)(=O)Nc2ccccc2)s1 (stereo not given) -14.9%
CC(=O)c1ccc(N2CCN(C(=O)C3CCN(S(=O)(=O)c4cccc5nonc45)CC3)CC2)cc1 -18%
O=c1c2c3c(sc2nnn1Cc1ccc(Br)cc1)CCCC3 -13.5%
O=S(=O)(NCCc1csc(-c2ccc(F)cc2)n1)c1ccc(Cl)cc1 -44%
CCOc1ccccc1NC(=O)Cn1c(=O)ccc2cc(S(=O)(=O)N3CCC(C)CC3)ccc21 -30.3%
CCOC(=O)c1ccc(NC(=O)CCc2c(C)nc3c(c(C)nn3C)c2C)cc1 -30%
CCOC(=O)C1CCN(C(=O)C2COc3ccccc3C2)CC1 (stereo not given) -14.9%
Cc1ccc(OCCCn2c(C3CC(=O)N(c4cccc(Cl)c4)C3)nc3ccccc32)c(C)c1 (stereo not given) -29.3%
CC1CCCCN1CCCOC(=O)c1ccc(OC2CCCCC2)cc1 (stereo not given) -15.5%
O=C(CSc1nccn1Cc1ccc(Cl)cc1)NC1CCCC1 -15.5%
Cc1ccc(CN2CCSc3ccc(C(=O)N4CCN(c5cccc(C)c5C)CC4)cc32)cc1 -13.3%
COc1ccc(-c2cnc(C)o2)cc1S(=O)(=O)Nc1ccc(C)c(F)c1 -42.5%
O=C(c1cc2ccccc2oc1=O)N(Cc1cccc(Cl)c1)C1CCS(=O)(=O)C1 (stereo not given) -5.63%
CCOC(=O)c1ccc(NC(=O)CC2C(=O)N(c3ccccc3)C(=O)N2Cc2cccs2)cc1 (stereo not given) -8.82%
COc1ccc(N2CCN(CC(O)COc3ccc(C(C)(C)C)cc3)CC2)cc1 (stereo not given) 3.72% [at 11.5 µM, percent change from vehicle, -100% = no light]
Cc1ccc(S(=O)(=O)c2[nH]c(-c3ccccc3)nc2SCC(=O)O)cc1 -15.7%
CCOc1ccc(CNC(=O)c2ccc3nc(Cc4ccc(OC)cc4)oc3c2)cc1OC -22.2%
CCN(C(=O)Cc1c(C(=O)O)[nH]c2ccccc12)c1ccc(OC)cc1 -6.95%
Cc1ccc(Cl)cc1NC(=O)c1ccc(-c2nc(CSc3ccccc3)c(C)o2)cc1 -32.5%
CCc1ccc(CN(C(=O)c2nc(SC)ncc2Cl)C2CCS(=O)(=O)C2)cc1 (stereo not given) -17.9%
CCC(=O)N1c2ccccc2CC1C(=O)N1CCN(c2ccccc2)CC1 (stereo not given) -10.7%
CC(C)Cc1nn2c(=O)cc(COC(=O)c3ccc(NC(=O)c4cccs4)cc3)nc2s1 2.9%
O=C1NC(=O)[C@@H](c2cn3c4c(cccc24)CCC3)[C@H]1c1c[nH]c2ccccc12 -43.2%
Cc1ccc(OCc2nc3ccccc3n2CC(C)C)cc1 20.3%
COc1ccc(CCNC(=O)CCn2c(=O)c3cccn3c3ccc(F)cc32)c(OC)c1OC -19%
CCOc1ccccc1CNC(=O)Nc1cn(CC(C)C)c(=O)c2ccccc12 -18.4%
CC(Oc1ccccc1)C(=O)Nc1nc2ccc(S(N)(=O)=O)cc2s1 (stereo not given) -9.57%
Cc1cc2c(cc1S(=O)(=O)NCc1ccc(N(C)C)cc1)OCC(=O)N2 -23.4%
COc1ccc(N(CC(=O)NC(C)c2ccccc2)S(=O)(=O)c2c(C)noc2C)cc1 (stereo not given) -12%
CCCN(C(=O)c1cc2c(s1)-c1ccccc1SC2)c1ccccc1F -28%
CC1(c2ccc(Cl)cc2)CC(C)(C)N(C(=O)c2ccccc2)c2ccccc21 (stereo not given) -39.8%
Cc1ccc(CN2CCC(CNc3ncnc4onc(-c5ccc(Cl)cc5)c34)CC2)cc1 -14.5%
COc1cccc(-n2ccnc2SCC(=O)Nc2cccc(C)c2C)c1 -16.1%
CCc1ccc(NC(=O)Cn2cnc3sc(C)c(S(=O)(=O)N4CCC(C)CC4)c3c2=O)cc1 -1.39%
CCCC(=O)NCC(c1ccc2c(c1)OCO2)N1CCN(c2ccc(F)cc2)CC1 (stereo not given) -18.7%
COc1ccc(-n2ncc(C(=O)NCc3ccccc3)c2C2CCN(C(=O)OC(C)(C)C)CC2)cc1 -20.5%
COc1ccc(-c2nc3c(C#N)c[nH]n3c2NC2CCCCC2)c(OC)c1 -16.2%
Cc1ccc(NC(=O)CN2CCCN(Cc3cc(C)ccc3C)S2(=O)=O)c(Cl)c1 -38%
COc1cccc(N2CCN(C(=O)C3CCC(CNS(=O)(=O)c4ccc(Br)s4)CC3)CC2)c1 (stereo not given) -41.4%
COCCCNC(=O)Cn1c(=O)n(-c2ccc(C)cc2)c(=O)c2c1c1cc(C)ccc1n2C -6.6%
